# Test results as given in the supplement of paper PMC8728848.
# Some of the results follow.
# B1: BTL (Bryothamnion triquetrum) (protein)
# chain: ADPICGSSGYSCTTPAILTPKSPGSFPSGYSKVIVTGVGGSYSVYIHRPDGFKVYKASEGGCASFGSYSGGGNSEVGKYGSGGTVVAVACK
# Columns and labels:
# Assay in all cases: glycan array binding signal (z-score within array); higher = stronger binding
# Details in all cases: glycan notation: IUPAC condensed, linker removed
# [1] = biological target: GlcNAc(b1-3)Gal(b1-3)GalNAc
# Method in brief: (§1)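 The binding signal is a Z-score computed within each array. Data were drawn from 3228 arrays in the Consortium for Functional Glycomics database, restricted to those with a known protein sequence. Scores were averaged over arrays of the same protein sequence at different concentrations or buffers, and over linkers, and negative values can be taken as non-binding.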
# GlcNAc(b1-3)Gal(b1-4)Glc = biological target: GlcNAc(b1-3)Gal(b1-4)Glc
# Method in brief: as §1
# [2] = biological target: GlcNAc(b1-3)Gal(b1-4)GlcNAc
# Method in brief: as §1
# [3] = biological target: GlcNAc(b1-3)Gal(b1-4)GlcNAc(b1-2)Man(a1-3)[GlcNAc(b1-3)Gal(b1-4)GlcNAc(b1-2)Man(a1-6)]Man(b1-4)GlcNAc(b1-4)GlcNAc
# Method in brief: as §1
# [4] = biological target: GlcNAc(b1-3)Gal(b1-4)GlcNAc(b1-2)Man(a1-3)[GlcNAc(b1-3)Gal(b1-4)GlcNAc(b1-2)Man(a1-6)]Man(b1-4)GlcNAc(b1-4)[Fuc(a1-6)]GlcNAc
# Method in brief: as §1
# [5] = biological target: GlcNAc(b1-3)Gal(b1-4)GlcNAc(b1-2)[GlcNAc(b1-3)Gal(b1-4)GlcNAc(b1-6)]Man(a1-6)[GlcNAc(b1-3)Gal(b1-4)GlcNAc(b1-2)Man(a1-3)]Man(b1-4)GlcNAc(b1-4)GlcNAc
# Method in brief: as §1
# [6] = biological target: GlcNAc(b1-3)Gal(b1-4)GlcNAc(b1-3)Gal(b1-4)GlcNAc
# Method in brief: as §1
# [7] = biological target: GlcNAc(b1-3)Gal(b1-4)GlcNAc(b1-3)Gal(b1-4)GlcNAc(b1-2)Man(a1-3)[GlcNAc(b1-3)Gal(b1-4)GlcNAc(b1-3)Gal(b1-4)GlcNAc(b1-2)Man(a1-6)]Man(b1-4)GlcNAc(b1-4)GlcNAc
# Method in brief: as §1
# [8] = biological target: GlcNAc(b1-3)Gal(b1-4)GlcNAc(b1-3)Gal(b1-4)GlcNAc(b1-2)Man(a1-3)[GlcNAc(b1-3)Gal(b1-4)GlcNAc(b1-3)Gal(b1-4)GlcNAc(b1-2)Man(a1-6)]Man(b1-4)GlcNAc(b1-4)[Fuc(a1-6)]GlcNAc
# Method in brief: as §1
# [9] = biological target: GlcNAc(b1-3)Gal(b1-4)GlcNAc(b1-3)Gal(b1-4)GlcNAc(b1-2)[GlcNAc(b1-3)Gal(b1-4)GlcNAc(b1-3)Gal(b1-4)GlcNAc(b1-6)]Man(a1-6)[GlcNAc(b1-3)Gal(b1-4)GlcNAc(b1-3)Gal(b1-4)GlcNAc(b1-2)Man(a1-3)]Man(b1-4)GlcNAc(b1-4)[Fuc(a1-6)]GlcNAc
# Method in brief: as §1
# [10] = biological target: GlcNAc(b1-3)Gal(b1-4)GlcNAc(b1-3)Gal(b1-4)GlcNAc(b1-3)Gal(b1-4)GlcNAc(b1-2)Man(a1-3)[GlcNAc(b1-3)Gal(b1-4)GlcNAc(b1-3)Gal(b1-4)GlcNAc(b1-3)Gal(b1-4)GlcNAc(b1-2)Man(a1-6)]Man(b1-4)GlcNAc(b1-4)GlcNAc
# Method in brief: as §1
# [11] = biological target: GlcNAc(b1-3)Gal(b1-4)GlcNAc(b1-3)Gal(b1-4)GlcNAc(b1-3)Gal(b1-4)GlcNAc(b1-2)Man(a1-3)[GlcNAc(b1-3)Gal(b1-4)GlcNAc(b1-3)Gal(b1-4)GlcNAc(b1-3)Gal(b1-4)GlcNAc(b1-2)Man(a1-6)]Man(b1-4)GlcNAc(b1-4)[Fuc(a1-6)]GlcNAc
# Method in brief: as §1
# [12] = biological target: GlcNAc(b1-3)Gal(b1-4)GlcNAc(b1-3)Gal(b1-4)GlcNAc(b1-3)Gal(b1-4)GlcNAc(b1-2)[GlcNAc(b1-3)Gal(b1-4)GlcNAc(b1-3)Gal(b1-4)GlcNAc(b1-3)Gal(b1-4)GlcNAc(b1-6)]Man(a1-6)[GlcNAc(b1-3)Gal(b1-4)GlcNAc(b1-3)Gal(b1-4)GlcNAc(b1-3)Gal(b1-4)GlcNAc(b1-2)Man(a1-3)]Man(b1-4)GlcNAc(b1-4)[Fuc(a1-6)]GlcNAc
# Method in brief: as §1
# [13] = biological target: GlcNAc(b1-3)Gal(b1-4)GlcNAc(b1-3)Gal(b1-4)GlcNAc(b1-3)Gal(b1-4)GlcNAc(b1-3)Gal(b1-4)GlcNAc(b1-2)Man(a1-3)[GlcNAc(b1-3)Gal(b1-4)GlcNAc(b1-3)Gal(b1-4)GlcNAc(b1-3)Gal(b1-4)GlcNAc(b1-3)Gal(b1-4)GlcNAc(b1-2)Man(a1-6)]Man(b1-4)GlcNAc(b1-4)GlcNAc
# Method in brief: as §1
# [14] = biological target: GlcNAc(b1-3)Gal(b1-4)GlcNAc(b1-3)Gal(b1-4)GlcNAc(b1-3)Gal(b1-4)GlcNAc(b1-3)Gal(b1-4)GlcNAc(b1-2)Man(a1-3)[GlcNAc(b1-3)Gal(b1-4)GlcNAc(b1-3)Gal(b1-4)GlcNAc(b1-3)Gal(b1-4)GlcNAc(b1-3)Gal(b1-4)GlcNAc(b1-2)Man(a1-6)]Man(b1-4)GlcNAc(b1-4)[Fuc(a1-6)]GlcNAc
# Method in brief: as §1
# [15] = biological target: GlcNAc(b1-3)Gal(b1-4)GlcNAc(b1-3)Gal(b1-4)GlcNAc(b1-3)Gal(b1-4)GlcNAc(b1-3)Gal(b1-4)GlcNAc(b1-2)[GlcNAc(b1-3)Gal(b1-4)GlcNAc(b1-3)Gal(b1-4)GlcNAc(b1-3)Gal(b1-4)GlcNAc(b1-3)Gal(b1-4)GlcNAc(b1-6)]Man(a1-6)[GlcNAc(b1-3)Gal(b1-4)GlcNAc(b1-3)Gal(b1-4)GlcNAc(b1-3)Gal(b1-4)GlcNAc(b1-3)Gal(b1-4)GlcNAc(b1-2)Man(a1-3)]Man(b1-4)GlcNAc(b1-4)[Fuc(a1-6)]GlcNAc
# Method in brief: as §1
# [16] = biological target: GlcNAc(b1-3)Gal(b1-4)GlcNAc(b1-3)Gal(b1-4)GlcNAc(b1-3)GalNAc
# Method in brief: as §1
# [17] = biological target: GlcNAc(b1-3)Gal(b1-4)GlcNAc(b1-3)GalNAc
# Method in brief: as §1
# [18] = biological target: GlcNAc(b1-3)Gal(b1-4)GlcNAc(b1-3)[GlcNAc(b1-3)Gal(b1-4)GlcNAc(b1-3)]GalNAc
# Method in brief: as §1
# [19] = biological target: GlcNAc(b1-3)Gal(b1-4)GlcNAc(b1-6)[Gal(b1-3)]GalNAc
# Method in brief: as §1
# [20] = biological target: GlcNAc(b1-3)Gal(b1-4)GlcNAc(b1-6)[GlcNAc(b1-3)Gal(b1-3)]GalNAc
# Method in brief: as §1
# [21] = biological target: GlcNAc(b1-3)Gal(b1-4)GlcNAc(b1-6)[GlcNAc(b1-3)]Gal(b1-4)GlcNAc
# Method in brief: as §1
# GlcNAc(b1-3)GalNAc = biological target: GlcNAc(b1-3)GalNAc
# Method in brief: as §1
# GlcNAc(b1-3)Man = biological target: GlcNAc(b1-3)Man
# Method in brief: as §1
# [22] = biological target: GlcNAc(b1-3)[GlcNAc(b1-4)][GlcNAc(b1-6)]GlcNAc
# Method in brief: as §1
# [23] = biological target: GlcNAc(b1-3)[GlcNAc(b1-6)]Gal(b1-4)GlcNAc
# Method in brief: as §1
# [24] = biological target: GlcNAc(b1-3)[GlcNAc(b1-6)]GalNAc
# Method in brief: as §1
# [25] = biological target: GlcNAc(b1-4)Gal(b1-4)GlcNAc
# Method in brief: as §1
# GlcNAc(b1-4)GlcNAc = biological target: GlcNAc(b1-4)GlcNAc
# Method in brief: as §1
# [26] = biological target: GlcNAc(b1-4)GlcNAc(b1-4)GlcNAc
# Method in brief: as §1
# [27] = biological target: GlcNAc(b1-4)GlcNAc(b1-4)GlcNAc(b1-4)GlcNAc(b1-4)GlcNAc
# Method in brief: as §1
# [28] = biological target: GlcNAc(b1-4)GlcNAc(b1-4)GlcNAc(b1-4)GlcNAc(b1-4)GlcNAc(b1-4)GlcNAc
# Method in brief: as §1
# [29] = biological target: GlcNAc(b1-4)[GlcNAc(b1-6)]GalNAc
# Method in brief: as §1
# [30] = biological target: GlcNAc(b1-6)Gal(b1-4)GlcNAc
# Method in brief: as §1
# GlcNAc(b1-6)GalNAc = biological target: GlcNAc(b1-6)GalNAc
# Method in brief: as §1
# [31] = biological target: GlcNAc6S(b1-3)Gal(b1-4)GlcNAc
# Method in brief: as §1
# Kdn(a2-3)Gal(b1-3)GalNAc = biological target: Kdn(a2-3)Gal(b1-3)GalNAc
# Method in brief: as §1
# Kdn(a2-3)Gal(b1-3)GlcNAc = biological target: Kdn(a2-3)Gal(b1-3)GlcNAc
# Method in brief: as §1
# Kdn(a2-3)Gal(b1-4)Glc = biological target: Kdn(a2-3)Gal(b1-4)Glc
# Method in brief: as §1
# Kdn(a2-3)Gal(b1-4)GlcNAc = biological target: Kdn(a2-3)Gal(b1-4)GlcNAc
# Method in brief: as §1
# [32] = biological target: Kdn(a2-3)Gal(b1-4)[Fuc(a1-3)]GlcNAc
# Method in brief: as §1
# Kdn(a2-6)Gal(b1-4)GlcNAc = biological target: Kdn(a2-6)Gal(b1-4)GlcNAc
# Method in brief: as §1
# [33] = biological target: Man(a1-2)Man(a1-2)Man(a1-3)Man
# Method in brief: as §1
# [34] = biological target: Man(a1-2)Man(a1-2)Man(a1-6)[Man(a1-3)]Man
# Method in brief: as §1
# Man(a1-2)Man(a1-3)Man = biological target: Man(a1-2)Man(a1-3)Man
# Method in brief: as §1
binder,measurement,setting,value
B1,glycan array binding signal (z-score),[1],-0.182
same,glycan array binding signal (z-score),GlcNAc(b1-3)Gal(b1-4)Glc,-0.278
same,glycan array binding signal (z-score),[2],-0.247
same,glycan array binding signal (z-score),[3],-0.193
same,glycan array binding signal (z-score),[4],3.45
same,glycan array binding signal (z-score),[5],-0.329
same,glycan array binding signal (z-score),[6],-0.249
same,glycan array binding signal (z-score),[7],-0.105
same,glycan array binding signal (z-score),[8],4.09
same,glycan array binding signal (z-score),[9],2.68
same,glycan array binding signal (z-score),[10],-0.185
same,glycan array binding signal (z-score),[11],3.85
same,glycan array binding signal (z-score),[12],2.31
same,glycan array binding signal (z-score),[13],-0.137
same,glycan array binding signal (z-score),[14],3.86
same,glycan array binding signal (z-score),[15],2.37
same,glycan array binding signal (z-score),[16],-0.209
same,glycan array binding signal (z-score),[17],-0.117
same,glycan array binding signal (z-score),[18],-0.194
same,glycan array binding signal (z-score),[19],-0.146
same,glycan array binding signal (z-score),[20],-0.269
same,glycan array binding signal (z-score),[21],-0.269
same,glycan array binding signal (z-score),GlcNAc(b1-3)GalNAc,-0.271
same,glycan array binding signal (z-score),GlcNAc(b1-3)Man,-0.242
same,glycan array binding signal (z-score),[22],-0.299
same,glycan array binding signal (z-score),[23],-0.304
same,glycan array binding signal (z-score),[24],-0.246
same,glycan array binding signal (z-score),[25],-0.205
same,glycan array binding signal (z-score),GlcNAc(b1-4)GlcNAc,-0.273
same,glycan array binding signal (z-score),[26],-0.21
same,glycan array binding signal (z-score),[27],-0.153
same,glycan array binding signal (z-score),[28],-0.274
same,glycan array binding signal (z-score),[29],-0.269
same,glycan array binding signal (z-score),[30],-0.23
same,glycan array binding signal (z-score),GlcNAc(b1-6)GalNAc,-0.24
same,glycan array binding signal (z-score),[31],-0.236
same,glycan array binding signal (z-score),Kdn(a2-3)Gal(b1-3)GalNAc,-0.259
same,glycan array binding signal (z-score),Kdn(a2-3)Gal(b1-3)GlcNAc,-0.261
same,glycan array binding signal (z-score),Kdn(a2-3)Gal(b1-4)Glc,-0.28
same,glycan array binding signal (z-score),Kdn(a2-3)Gal(b1-4)GlcNAc,-0.282
same,glycan array binding signal (z-score),[32],-0.289
same,glycan array binding signal (z-score),Kdn(a2-6)Gal(b1-4)GlcNAc,-0.177
same,glycan array binding signal (z-score),[33],-0.275
same,glycan array binding signal (z-score),[34],-0.238
same,glycan array binding signal (z-score),Man(a1-2)Man(a1-3)Man,-0.268
